This is an account of results in PMC3179504 (PLoS ONE, 2011).

The test system of the experiment is PAK1 (ser199/204)/PAK2 (ser192/197). The experiment in a line: PAK phosphorylation, Western blot, U373MG cells. Particulars: 1 hour, SP 100 nM, 1 min. The method, then: Cells were lysed in lithium dodecyl sulfate (LDS) sample buffer (Invitrogen, Carlsbad, CA), and lysed using a sonic dismembrator model 100 (Fisher Scientific, Hampton, NH). Cell extracts were subjected to LDS polyacrylamide gel electrophoresis and transferred to polyvinylidene difluoride membranes. After blocking with 5% nonfat dry milk in 0.1% Tween 20/TBS, membranes were incubated with the primary antibody. […] The following non phospho-specific antibodies were used: Beta-Actin and PAK1/2/3 (Cell Signaling Technology, Beverly, MA). Secondary antibodies conjugated to horseradish peroxidase were either anti-rabbit (Biorad, Hercules, CA), or anti-mouse (Cell Signaling Technology, Beverly, MA). Bands were visualized by enhanced chemiluminescence using SuperSignal® West Pico Chemiluminescent Substrate (Thermo Scientific, Rockford, IL) on a VersaDoc Imager (BioRad, Hercules, CA).
A general note: In western blotting, separated proteins are transferred to a membrane and probed.

For `Oc1ccc2ccccc2c1SSc1c(O)ccc2ccccc12` [IPA3, 1, 1′-Dithiodi-2-naphthtol], the “effect of IPA3 on SP-induced PAK phosphorylation” value (IPA3 20 µM) is reported as “inhibition of SP-induced PAK phosphorylation”.
Take `C[C@@H](O[C@H]1OCCN(Cc2n[nH]c(=O)[nH]2)[C@H]1c1ccc(F)cc1)c1cc(C(F)(F)F)cc(C(F)(F)F)c1` [aprepitant]: the “effect of aprepitant on SP-induced PAK phosphorylation” value (aprepitant 1 µM) was “complete block of SP-induced PAK phosphorylation”.
